Experimental data published in PMC8857484.
These are yes or no findings as the source states them, for the method shown. In cells and extracts the contact can be indirect. Some results given as binding are weak or reduced against the parent protein; the word gives no strength. For some assays here: Where a sequence is shown, tags or fusion partners need not be part of it.

Amino acid sequences for entries named in this document (tags omitted). A change or cut given only in a name is not applied to a line headed by its entry. Residues count along the entry.
UniProt Q13586: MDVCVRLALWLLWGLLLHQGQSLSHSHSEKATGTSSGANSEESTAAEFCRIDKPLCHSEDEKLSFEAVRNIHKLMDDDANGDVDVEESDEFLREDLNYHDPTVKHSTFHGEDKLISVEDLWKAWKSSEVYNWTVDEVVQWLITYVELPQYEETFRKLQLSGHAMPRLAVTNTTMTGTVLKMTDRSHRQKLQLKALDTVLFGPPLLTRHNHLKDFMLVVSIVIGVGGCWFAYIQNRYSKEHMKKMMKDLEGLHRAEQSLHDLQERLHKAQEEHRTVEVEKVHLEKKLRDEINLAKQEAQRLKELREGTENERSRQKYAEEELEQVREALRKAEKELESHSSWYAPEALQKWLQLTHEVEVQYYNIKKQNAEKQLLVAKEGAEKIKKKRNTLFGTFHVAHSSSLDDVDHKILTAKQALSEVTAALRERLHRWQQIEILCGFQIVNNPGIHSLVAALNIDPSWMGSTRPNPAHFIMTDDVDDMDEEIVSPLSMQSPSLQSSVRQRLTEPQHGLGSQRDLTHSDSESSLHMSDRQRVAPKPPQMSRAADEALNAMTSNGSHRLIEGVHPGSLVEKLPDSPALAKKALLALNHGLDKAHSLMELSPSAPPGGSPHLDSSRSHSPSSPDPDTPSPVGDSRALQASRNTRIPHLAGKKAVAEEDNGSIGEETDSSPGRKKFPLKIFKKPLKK
UniProt P70302, residues 23-685: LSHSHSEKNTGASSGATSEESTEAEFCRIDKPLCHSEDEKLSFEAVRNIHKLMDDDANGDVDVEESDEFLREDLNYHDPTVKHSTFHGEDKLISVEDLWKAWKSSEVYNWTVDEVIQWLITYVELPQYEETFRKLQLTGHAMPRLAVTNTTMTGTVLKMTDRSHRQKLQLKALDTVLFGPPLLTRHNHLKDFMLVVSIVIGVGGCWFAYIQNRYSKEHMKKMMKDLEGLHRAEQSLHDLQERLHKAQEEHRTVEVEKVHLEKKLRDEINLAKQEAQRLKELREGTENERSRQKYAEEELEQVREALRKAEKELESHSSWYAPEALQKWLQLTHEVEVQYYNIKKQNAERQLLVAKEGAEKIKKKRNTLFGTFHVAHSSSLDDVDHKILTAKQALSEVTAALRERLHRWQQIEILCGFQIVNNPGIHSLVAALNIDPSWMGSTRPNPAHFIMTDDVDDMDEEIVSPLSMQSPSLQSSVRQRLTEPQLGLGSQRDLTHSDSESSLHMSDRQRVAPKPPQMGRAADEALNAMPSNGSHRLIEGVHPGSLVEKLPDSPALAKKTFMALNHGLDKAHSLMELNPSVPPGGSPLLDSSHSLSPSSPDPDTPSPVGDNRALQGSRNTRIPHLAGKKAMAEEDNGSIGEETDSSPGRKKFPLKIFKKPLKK

What was measured:
[1] = biological target: T1, uncoordinated 93 homolog B1 (UNC93B1), endogenous in HEK-293T cells (human (endogenous in HEK-293T)) (UniProt Q9H1C4); experiment: co-IP; lysates of mouse dendritic cells and of HEK-293T STIM1^flip-in cells (0.5% NP-40, 50 mM Tris pH 7.4, 150 mM NaCl, 5 mM EDTA); immunoprecipitated with anti-UNC93B1 overnight at 4 °C, protein A/G agarose; blot probed with anti-STIM1
T1 sequence: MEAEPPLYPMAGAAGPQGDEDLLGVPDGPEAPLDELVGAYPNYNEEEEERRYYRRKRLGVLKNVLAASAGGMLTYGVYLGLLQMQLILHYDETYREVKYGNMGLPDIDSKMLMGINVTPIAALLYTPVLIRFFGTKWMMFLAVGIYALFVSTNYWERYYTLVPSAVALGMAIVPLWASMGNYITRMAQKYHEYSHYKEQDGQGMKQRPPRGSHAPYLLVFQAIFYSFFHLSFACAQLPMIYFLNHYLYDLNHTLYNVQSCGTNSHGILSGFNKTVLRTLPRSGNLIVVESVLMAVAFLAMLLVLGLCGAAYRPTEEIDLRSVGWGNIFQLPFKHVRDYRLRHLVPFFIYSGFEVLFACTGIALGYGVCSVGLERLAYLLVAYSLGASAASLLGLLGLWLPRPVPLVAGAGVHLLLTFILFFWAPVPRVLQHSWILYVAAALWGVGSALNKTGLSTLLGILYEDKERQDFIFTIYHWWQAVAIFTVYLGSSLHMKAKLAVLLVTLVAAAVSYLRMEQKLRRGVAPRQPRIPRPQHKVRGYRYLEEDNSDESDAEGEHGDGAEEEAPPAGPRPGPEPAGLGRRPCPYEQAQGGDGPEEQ

UNC93B1-FLAG-MYC = biological target: T2, UNC93B1-FLAG-MYC (UniProt Q9H1C4); experiment: co-IP; WT HEK-293T cells transfected with UNC93B1-FLAG and a STIM1 construct; lysis in 0.5% NP-40, 50 mM Tris pH 7.4, 150 mM NaCl, 5 mM EDTA; immunoprecipitated with anti-FLAG; blot probed with anti-STIM1 (N-term) and anti-FLAG
T2 sequence: T1 sequence

[2] = biological target: T3, uncoordinated 93 homolog B1 (UNC93B1), endogenous in the mouse dendritic cell line 2114 (mouse (endogenous in the dendritic cell line 2114)) (UniProt Q8VCW4); experiment: co-IP; lysates of mouse dendritic cells and of HEK-293T STIM1^flip-in cells (0.5% NP-40, 50 mM Tris pH 7.4, 150 mM NaCl, 5 mM EDTA); immunoprecipitated with anti-UNC93B1 overnight at 4 °C, protein A/G agarose; blot probed with anti-STIM1
T3 sequence: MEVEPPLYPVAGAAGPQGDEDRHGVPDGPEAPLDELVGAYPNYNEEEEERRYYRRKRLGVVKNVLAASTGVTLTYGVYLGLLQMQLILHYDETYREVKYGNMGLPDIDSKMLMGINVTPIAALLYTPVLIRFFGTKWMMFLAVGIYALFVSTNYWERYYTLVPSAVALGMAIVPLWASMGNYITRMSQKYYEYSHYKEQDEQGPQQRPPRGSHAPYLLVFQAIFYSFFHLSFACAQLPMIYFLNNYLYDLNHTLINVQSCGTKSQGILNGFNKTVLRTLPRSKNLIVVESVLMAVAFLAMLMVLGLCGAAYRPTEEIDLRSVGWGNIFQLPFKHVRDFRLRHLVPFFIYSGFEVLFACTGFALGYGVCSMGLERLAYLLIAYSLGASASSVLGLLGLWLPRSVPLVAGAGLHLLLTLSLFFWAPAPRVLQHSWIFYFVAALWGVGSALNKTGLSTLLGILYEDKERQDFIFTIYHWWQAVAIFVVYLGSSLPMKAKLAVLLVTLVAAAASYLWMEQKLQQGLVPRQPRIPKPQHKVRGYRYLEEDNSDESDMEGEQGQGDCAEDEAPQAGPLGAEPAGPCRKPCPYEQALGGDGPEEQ

Substance | binding (UNC93B1-FLAG-MYC) | also measured
STIM1 stably overexpressed with the flip-in system in HEK-293T cells (from UniProt Q13586 23-685) | – | binding [1]: binds
mCherry-STIM1 (1–240) (from UniProt Q13586 23-240) (domain or fragment) | binds | –
stromal interaction molecule 1 (STIM1), endogenous in the mouse dendritic cell line 2114 (from UniProt P70302 23-685) | – | binding [2]: binds

The next lines start with results.

binding (UNC93B1-FLAG-MYC) | Substance | also measured
binds | STIM1^TM4-YFP (STIM1 chimera containing the TLR4 TM domain) (from UniProt Q13586 23-213; O00206 632-652; Q13586 235-685) | –
no binding | mCherry-STIM1 (1–152) (from UniProt Q13586 23-152) (domain or fragment) | –
